Results from paper PMC12040169 (PLOS Biology, 2025).
The other results are listed elsewhere or left out.

The molecules below were run on T1, C. trachomatis L2/434/Bu expressing GFP (CTL2-GFP). Settings: total inclusion area; 28.5 h, 10 µM; inhibitor.
T1 construct: L2/434/Bu GFP intracellular growth in HeLa cells
Set-up: species or system HeLa; C. trachomatis total inclusion area by high-content imaging, normalised to DMSO
How it was run: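 Following bulk GFP and resorufin fluorescence reads, infected cells were fixed, Hoechst-stained and imaged on a high-content platform. Inclusion total area and number per well served as growth proxies; nuclei counts indicated host viability. MICs were derived as for the fluorescence assay.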

SMILES	% of control remaining
O=C(Nc1nnc(C(F)(F)F)s1)c1cc(Cl)ccc1Cl [CBK095734]	78.7595
CCCc1c(C(=O)NCCCN(C)C)cnn1-c1cc(Cl)cc(Cl)c1 [CBK107376]	90.2626
COc1cccc(NC(=O)c2sc(N)nc2-c2ccccc2)c1 [CBK072023]	122.805
CC1(C)Cc2nc(N3CCOCC3)ncc2C(NC(=O)C2CCC2)C1 (centres unmarked) [CBK306943]	70.8927
OC(COCc1ccc(Cl)cc1)CN1CCN(c2cccc(Cl)c2)CC1 (centres unmarked) [CBK278315C]	112.669
CCOC(=O)N1CCN(CC(=O)Nc2cc3c(cc2C(C)=O)OCO3)CC1 [CBK266163]	116.745
O=C1CCCN1CP(=O)(O)CN1CCCCC1 [CBK262302]	101.617
COc1ccc(Nc2cc(Cl)ccc2C(=O)Nc2ccncc2)cn1 [CBK107434]	9.0836
CC(N(C)CC(=O)NCc1ccc(OCC(N)=O)cc1)C(C)(C)C (centres unmarked) [CBK306338]	91.4666
CC(C)[C@@H](CO)Nc1nc(-c2cc(C(F)(F)F)cc(C(F)(F)F)c2)cn2ccnc12 [CBK037496]	82.8733
Cc1oc(-c2ccccc2)cc1C(=O)Nc1cc2ccccc2c(N2CCNCC2)n1 [CBK038938T]	87.459
Cc1ccc(-c2csc(NC(=O)CN3C(=O)CCC3=O)n2)c(C)c1 [CBK287348]	127.046
CCCc1nnc(SC(C)C(=O)N2CCCc3ccccc32)[nH]1 (centres unmarked) [CBK306480]	60.369
O=C(Cn1ncc2cccn2c1=O)OCC(F)(F)F [CBK283554]	106.367
COC(=O)[C@@H]1Cc2ncn(C(C)C)c2CN1C(=O)CC(C)(C)C [CBK288988]	105.732
COc1ccc(CCNC(=O)CN2CCCC2Cn2cncn2)cc1 (centres unmarked) [CBK304567]	71.1914
COc1cc2c(cc1OC)CN(S(=O)(=O)c1cc(C(=O)O)ccc1Cl)CC2 [CBK296923]	88.5166
CC(C)(CO)NC(=O)COc1ccc(Cl)cc1 [CBK261833]	99.5618
Cc1ccc(C2=CCN(CC(=O)Nc3ccccn3)CC2)o1 [CBK283634]	104.457
O=C(NCc1ccsc1)N1CCCN(Cc2ccc(Cl)cc2)CC1 [CBK305450]	77.7599
CC(C)N1CC(C(=O)N(C)C)C2(CCc3ccccc3C2O)C1 (centres unmarked) [CBK286305]	121.38
Cc1nn(C)c(C)c1CN(C)C(=O)C(C)Cn1cc(Cl)cn1 (centres unmarked) [CBK282187]	93.9099
CCc1cc(CNS(=O)(=O)Cc2cccc(F)c2)on1 [CBK283061]	105.289
